#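 Interpolation was linear, between the two tested concentrations surrounding the appropriate level; five concentrations were tested over 48 hours in 96-well plates. Here, GI50 denotes the concentration required for 50% inhibition of growth.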 For part of its entries the source gives two or more results. Only these are listed. There may be further records. For part of these data: Values given together repeat one measurement across runs, samples, wells, individuals or studies. A tag in brackets gives the origin of a value. A, B and so on number the origins entry by entry.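 TGI is the concentration that stops growth completely.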 For part of these data: A record mostly stands for its own series of concentrations, which the source does not state; a value can be the end of its range. Square brackets hold non-standard residues; d marks the D form. Peptide text beside a SMILES is read from it. * marks the point of attachment. Bn2Val = CC(C)[C@@H](C(=O)*)N(Cc1ccccc1)Cc1ccccc1; NH(3,4-diMeO-benzyl) = COc1ccc(CN*)cc1OC; NMeV = CN[C@H](C(=O)O)C(C)C; dNMeA = CN[C@H](C)C(=O)O
# Columns and labels:
# Assay in all cases: NCI tumour cell line growth inhibition, 48 h
# EKVX NSCLC = test system: EKVX NSCLC
# HCC-2998 colon = test system: HCC-2998 colon
# HOP-62 NSCLC = test system: HOP-62 NSCLC
# M14 melanoma = test system: M14 melanoma
# NCI-H23 lung = test system: NCI-H23 lung
# SF-295 CNS = test system: SF-295 CNS
# SN12C renal = test system: SN12C renal
# SNB-19 CNS = test system: SNB-19 CNS
# SNB-75 CNS = test system: SNB-75 CNS
# SR leukemia = test system: SR leukemia
# HS 578T breast = test system: HS 578T breast
# HCT-116 colon = test system: HCT-116 colon
# HT29 colon = test system: HT29 colon
# CAKI-1 renal = test system: CAKI-1 renal
compound,measurement,setting,value
O=C(O)CCCc1ccc(N(CCCl)CCCl)cc1,TGI,EKVX NSCLC,"33.4 µM, 376 µM, 502 µM"
same,TGI,HCC-2998 colon,"38 µM, 237 µM, 426 µM"
same,TGI,HOP-62 NSCLC,"31.2 µM, 221 µM, 554 µM"
same,TGI,M14 melanoma,"35.2 µM, 205 µM, 410 µM"
same,TGI,NCI-H23 lung,"20.5 µM, 137 µM, 215 µM"
same,TGI,SF-295 CNS,"61.1 µM, 293 µM, 638 µM"
same,TGI,SN12C renal,"38.9 µM, 239 µM, 750 µM"
same,TGI,SNB-19 CNS,"49.4 µM, 395 µM, 589 µM"
same,TGI,SNB-75 CNS,"31.5 µM, 209 µM, 401 µM"
same,TGI,SR leukemia,7.87 µM and 131 µM
"COc1ccc(CNC(=O)[C@@H](C)N(C)C(=O)[C@@H]2CCCN2C(=O)[C@H](C(C)C)N(C)C(=O)[C@@H](NC(=O)[C@H](C(C)C)N(Cc2ccccc2)Cc2ccccc2)C(C)C)cc1OC (Bn2Val-V[NMeV]P[dNMeA]-{NH(3,4-diMeO-benzyl)})",TGI,HS 578T breast,7.11 µM and > 100 µM
COc1cc([C@@H]2c3cc4c(cc3C[C@H]3COC(=O)[C@@H]32)OCO4)cc(OC)c1OC,TGI,HCT-116 colon,9.62 nM [1 test] and > 50 µM [mean of 4 tests]
same,TGI,HT29 colon,9.32 nM [1 test] and 1.26 µM [mean of 5 tests]
O=c1c(Cl)c(Cl)cnn1-c1ccccc1,TGI,CAKI-1 renal,"3.3 µM [sample A, mean of 2 tests] and > 100 µM [sample B, 1 test]"
same,GI50,SNB-75 CNS,"397 nM [sample A, mean of 3 tests] and 12.7 µM [sample B, mean of 2 tests]"

# Reference: PubChem BioAssay (NCI)
